The campaign covered roughly 2,100 compounds. About 320 (15%) were called active. Inconclusive means that the source gave no clear call. Such entries were picked first, then a sample of the others. Calls follow the shape of the dose curve; as a rule, active = well fitted cell-killing curve with a large enough effect; inconclusive = small, poorly fitted or top-dose-only effect, or effect the other way; inactive = flat fitted curve, though single readings scatter. Potencies beside an inconclusive call are fits to weak or partial responses and may not hold up.
Experiment: Viability Counterscreen for CMV-Luciferase Assay of Inhibitors of ATXN expression; also: nearly all actives have a fitted effect of over 55% in size
Details: HEK-293 CMV-luciferase cells viability, protease fluorescence, 24 h
Excerpt: PI: Daniel Scoles Ph.D. University of Utah School of Medicine, Salt Lake City, Utah MLPCN Grant: NS073009 Spinocerebellar ataxia type 2 (SCA2) is a multisystem neurodegenerative disease caused by a dominantly acting mutation leading to expansion of a polyQ domain in the ataxin-2 protein (ATXN2). SCA2 patients develop progressive ataxia and later lose function in other neuronal systems. Prominent parkinsonian signs develop in some patients. Like many neurodegenerative disorders, no symptomatic or disease-modifying treatments are known. The primary objective of the proposed research is to identify compounds inhibiting ATXN2 expression and to test them for efficacy in SCA2 mouse models. We have developed a cell-based assay paired with an in vivo mouse model using identical luciferase expression constructs. This approach takes advantage of an ATXN2-luciferase transgene, with the luciferase gene flanked by the upstream and downstream portions of the ATXN2 gene. Here we describe a 5-7 dose quantitative high thoroughput screen (qHTS) for compounds lowering ATXN2 expression. We screened the NIH Molecular Libraries Small Molecule Repository (MLSMR) and NCGC's mechanistically annotated (MIPE) and drug repurposing (NPC) collections of compounds for lowering expression of an ATXN2-luciferase reporter in HEK-293 cells. The assay is a multiplexed cell viability assay to ensure target reduction in the absence of cytotoxicity. Secondary qHTS assays included a CMV-luciferase reporter expressed in HEK-293 cells as well as a biochemical assay using recombinant luciferase to detect inhibitors of the reporter enzyme. Compounds that inhibit ATXN2 expression but is not cytotoxic were selected for confirmatory and secondary screens.
PROTOCOL TABLE (as described by Inglese J, Shamu CE and Guy RK. 2007) SEQUENCE No. (e.g., 1, 2, 3, etc.); […] (e.g., Cells, Incubation, Reagent, etc.); VALUE; DESCRIPTION. 1; Cells; 4 uL; white, solid bottom, 1536-well Greiner assay plate. 2; Incubation; 2 hr; 37 degree C in 5% humidified CO2. 3; Compounds; 23 nL; Kalypsis pintool (Wako USA) equipped with a 1536-well pin head. 4; Incubation; 24 hr; 37 degree C in 5% humidfified CO2. 5; Reagent; 1 uL; Gly-Phe-7-Amino-4-trifluoromethylcoumarin. 6; Incubation; 30 min; 37 degree C in 5% humidfified CO2. 7; Detection; Fluorescence; Viewlux plate reader (PerkinElmer). 8; Reagent; 3 uL; SteadyGlo luciferase solution (Promega). 9; Incubation; 5 min; room temperature. 10; Detection; Luminescence; ViewLux plate reader (PerkinElmer). NOTES (numbers refer to Sequence numbers above) 1. HEK-293 cells expressing CMV-luciferase reporter (designated as SC cells) were suspended in phenol-red free DMEM and dispensed in assay plates using a Multidrop Combi dispenser (Thermo Fisher Scientific). 2. Assay plates were incubated. Evaporation was prevented by covering assay plates with metal lids containing holes to allow gas diffusion. 3. Compounds were added in a dose response manner with the final concentrations of 57, 11.4, 2.28, 0.46, 0.091, 0.018, 0.0037 uM. Vehicle-only plates, with DMSO being pin-transferred to columns 5-48, were inserted uniformly at the beginning and the end of each library to monitor and record any shifts in assay performance. 5. 125 uM Gly-Phe-7-Amino-4-trifluoromethylcoumarin (MP Biomedicals) working concentration was used at a final concentration of 25 uM. 7. To assess cell viability; the assay plates were read using the ViewLux high-throughput CCD imager (PerkinElmer), wherein single end-point fluorescence measurement was acquired (excitation 405/10; emission 540/25 nm). 8. Detection reagent SteadyGlo Luciferase (Promega) was added to the assay plate. 10. Luminescence is then measured on the ViewLux imager equipped with a clear emission filter using a 2 sec exposure. […]
For CCc1ccccc1OCC(=O)Nc1nc(-c2cccnc2)cs1, the Potency was inconclusive: 31.6 µM [cytotoxic, partial curve, poor fit].
With COc1cc2c3nnc(-c4ccc(F)cc4)c-3cn(Cc3ccc(F)cc3)c2cc1OC the Potency was inconclusive: 3.55 µM [rising, single point].
In the case of Cc1cc(C)c2c(c1)/C(=C/C(=O)c1ccc(Br)s1)C(=O)N2, the Potency is reported as active: 3.16 µM.
With CC(C)Nc1nc(NC(C)C)nc(N(C#N)CCOc2ccc(Cl)cc2Cl)n1 the Potency was “inactive”.
With COCCCn1c(N)c(-c2nc3ccccc3n2C)c2nc3ccccc3nc21 the Potency was inconclusive: 35.5 µM [rising, partial curve].
For COc1cnc(-c2ccccn2)nc1Oc1ccc(Cl)c2ccccc12, the Potency was inconclusive: 3.55 µM [cytotoxic, partial curve, poor fit].
With COc1ccc(C(=O)C=CNNC(=O)c2ccc(Cl)cc2)cc1 the Potency was inconclusive: 17.8 µM [cytotoxic, single point].
With OC[C@@H]1CN(Cc2ccc(-c3ccccc3)cc2)C[C@H](n2cnc3c(Nc4ccccc4)ncnc32)O1 the Potency was active: 22.4 µM.
For Nc1c(C(=O)NCc2ccc3c(c2)OCO3)c2nc3ccccc3nc2n1CCCN1CCOCC1, the Potency was inconclusive: 25.1 µM [rising, partial curve].
In the case of Cc1cccc2sc(N(CCCN(C)C)C(=O)c3ccco3)nc12, the Potency is reported as inconclusive: 6.31 µM [cytotoxic, partial curve, poor fit].
With CCOC(=O)Cn1cc(C(=O)c2ccco2)c2ccccc21 the Potency was “inactive”.
For Cc1cc(C)c(C)c(OC(=O)c2sc(Cl)nc2C)c1, the Potency was active: 20 µM.
For O=C(CCCN1C(=O)S/C(=C\c2ccccc2)C1=O)NNC(=O)c1ccccc1O, the Potency was inconclusive: 11.2 µM [cytotoxic, partial curve, poor fit].
With CCCCOC(=O)/C=C\C(=O)NC(N)=O the Potency was inconclusive: 39.8 µM [rising, single point].
With COc1ccccc1NS(=O)(=O)c1cccc(C(=O)N/N=C/c2ccc([N+](=O)[O-])o2)c1 the Potency was active: 10 µM.
With COC1=C(c2ccccc2)C(=O)c2ccccc2C1=O the Potency was inconclusive: 3.16 µM [cytotoxic, single point].
With COc1cc(N)ccc1Nc1c2ccccc2nc2ccccc12 the Potency was active: 14.1 µM.
In the case of CCCc1cnc(NCCNCC(O)COc2ccc(Cl)c(Cl)c2)nc1 (stereo not given), the Potency is reported as active: 28.2 µM.
In the case of O=C(N/N=C\c1ccc([N+](=O)[O-])s1)c1cncc(Br)c1, the Potency is reported as active: 10 µM.
In the case of Cc1ccc(NC(=O)c2cnc(N3CCN(c4ccccn4)CC3)c3ccccc23)c(Br)c1, the Potency is reported as inconclusive: 39.8 µM [rising, single point].

From PubChem BioAssay AID1745849 (National Center for Advancing Translational Sciences (NCATS), 2022)
Potency is read from the fitted curve at half-maximal effect; tags tell the direction and shape of the fitted curve.
